Laboratory results as given in the supplement of paper PMC9151546.
Most values come without repeats; read them as rough.

Assays:
CHO-K1 [1] = assay: hypodiploid nuclei frequency (% of nucleated events); higher = more hypodiploid events (aneugenic)
CHO-K1 [2] = assay: micronucleus frequency (% of nucleated events); higher = more micronuclei (genotoxic)
CHO-K1 [3] = assay: relative survival (nuclei to bead ratio vs DMSO control) (% of vehicle control); higher = more surviving cells
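Throughout, for hypodiploid nuclei frequency (% of nucleated events): hypodiploid nuclei gated on a flow cytometer with 488 nm excitation after SYTOX Green staining, cultures at 37 °C, positive controls vinblastine without S9 and cyclophosphamide with S9.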
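Throughout, for micronucleus frequency (% of nucleated events): cells lysed with nuclei stained by SYTOX Green, then micronucleus-gated events counted against nucleated events by flow cytometry with 488 nm excitation.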
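Throughout, for relative survival (nuclei to bead ratio vs DMSO control): Lysed-cell nuclei stained with SYTOX Green and counted against counting beads by flow cytometry at 488 nm excitation, with vinblastine (no S9) and cyclophosphamide (plus S9) as positive controls.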

CCc1cccc(C)c1N(C(=O)CCl)C(C)COC (stereo not drawn) [Metolachlor]
Settings | hypodiploid nuclei frequency, CHO-K1 [1] [%] | micronucleus frequency, CHO-K1 [2] [%] | relative survival, CHO-K1 [3]
concentration: 4.5 (µM), S9 metabolic activation: with S9, exposure time: 3-4 hours | 0.18 | 1.46 | 167
concentration: 4.5 (µM), S9 metabolic activation: without S9, exposure time: 24 hours | 0.72 | 2.46 | 145
concentration: 5.63 (µM), S9 metabolic activation: with S9, exposure time: 3-4 hours | 0.38 | 1.42 | 136
concentration: 5.63 (µM), S9 metabolic activation: without S9, exposure time: 24 hours | 0.7 | 3.48 | 146
concentration: 7.04 (µM), S9 metabolic activation: with S9, exposure time: 3-4 hours | 0.32 | 1.64 | 152
concentration: 7.04 (µM), S9 metabolic activation: without S9, exposure time: 24 hours | 0.58 | 2.2 | 140
concentration: 8.8 (µM), S9 metabolic activation: with S9, exposure time: 3-4 hours | 0.2 | 1.42 | 144
concentration: 8.8 (µM), S9 metabolic activation: without S9, exposure time: 24 hours | 0.46 | 2.9 | 145
concentration: 11 (µM), S9 metabolic activation: with S9, exposure time: 3-4 hours | 0.12 | 1.26 | 128
concentration: 11 (µM), S9 metabolic activation: without S9, exposure time: 24 hours | 0.9 | 2.88 | 149
concentration: 13.7 (µM), S9 metabolic activation: with S9, exposure time: 3-4 hours | 0.18 | 1.62 | 109
concentration: 13.7 (µM), S9 metabolic activation: without S9, exposure time: 24 hours | 0.72 | 2.86 | 139
concentration: 17.2 (µM), S9 metabolic activation: with S9, exposure time: 3-4 hours | 0.16 | 1.9 | 129
concentration: 17.2 (µM), S9 metabolic activation: without S9, exposure time: 24 hours | 0.62 | 2.68 | 141
concentration: 21.5 (µM), S9 metabolic activation: with S9, exposure time: 3-4 hours | 0.14 | 1.84 | 129
concentration: 21.5 (µM), S9 metabolic activation: without S9, exposure time: 24 hours | 0.68 | 2.1 | 120
concentration: 26.8 (µM), S9 metabolic activation: with S9, exposure time: 3-4 hours | 0.22 | 0.86 | 122
concentration: 26.8 (µM), S9 metabolic activation: without S9, exposure time: 24 hours | 0.8 | 1.5 | 142
concentration: 33.6 (µM), S9 metabolic activation: with S9, exposure time: 3-4 hours | 0.16 | 1.3 | 156
concentration: 33.6 (µM), S9 metabolic activation: without S9, exposure time: 24 hours | 0.9 | 2.74 | 162
concentration: 41.9 (µM), S9 metabolic activation: with S9, exposure time: 3-4 hours | 0.14 | 1.02 | 117
concentration: 41.9 (µM), S9 metabolic activation: without S9, exposure time: 24 hours | 0.56 | 1.58 | 144
concentration: 52.4 (µM), S9 metabolic activation: with S9, exposure time: 3-4 hours | 0.26 | 0.94 | 122
concentration: 52.4 (µM), S9 metabolic activation: without S9, exposure time: 24 hours | 0.7 | 1.82 | 129
concentration: 65.5 (µM), S9 metabolic activation: with S9, exposure time: 3-4 hours | 0.16 | 1.24 | 104
concentration: 65.5 (µM), S9 metabolic activation: without S9, exposure time: 24 hours | 0.68 | 1.84 | 129
concentration: 81.9 (µM), S9 metabolic activation: with S9, exposure time: 3-4 hours | 0.2 | 1.24 | 114
concentration: 81.9 (µM), S9 metabolic activation: without S9, exposure time: 24 hours | 0.74 | 2.18 | 126
concentration: 102 (µM), S9 metabolic activation: with S9, exposure time: 3-4 hours | 0.2 | 1.28 | 119
concentration: 102 (µM), S9 metabolic activation: without S9, exposure time: 24 hours | 0.9 | 1.76 | 113
concentration: 128 (µM), S9 metabolic activation: with S9, exposure time: 3-4 hours | 0.3 | 1.3 | 104
concentration: 128 (µM), S9 metabolic activation: without S9, exposure time: 24 hours | 0.78 | 1.74 | 130
concentration: 160 (µM), S9 metabolic activation: with S9, exposure time: 3-4 hours | 0.19 | 1.65 | 93.9
concentration: 160 (µM), S9 metabolic activation: without S9, exposure time: 24 hours | 1.04 | 2.08 | 94.2
concentration: 200 (µM), S9 metabolic activation: with S9, exposure time: 3-4 hours | 0.2 | 1.55 | 96.6
concentration: 200 (µM), S9 metabolic activation: without S9, exposure time: 24 hours | 1.1 | 1.88 | 77.7
